Test results: PubChem BioAssay AID1508624 (National Center for Advancing Translational Sciences (NCATS), 2021)
Out of some 48,000 compounds screened, about 120 (0.25%) were called active. Another 4% or so got no clear call; they are omitted. Calls come from the whole dose curve; as a rule, active = well fitted activation curve with a large enough effect; inconclusive = small, poorly fitted or top-dose-only effect, or another doubt; inactive = no such curve, though single readings can be large or run the other way. The list shows a part of the results.

assay: Primary qHTS for Identification of Small Molecule Activators of Huntingtin-Antisense Promoter Activity; settings: HEK293 HTT-AS promoter firefly luciferase reporter, 24 h; series mostly up to 57.5 µM; activity change, positive = activation: at the top concentration; note: nearly all actives have a fitted effect of over 55% in size
How it was run: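 HEK293 luciferase promoter-reporter cells (2,500/well) plated 24 h, then compounds added at up to 57.5 uM final for 24 h at 37 °C. Firefly luminescence by Dual-Glo, normalized to vehicle (0%) and zero RLU (-100%).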

Activity change, positive = activation, inactive:
COc1ccc(NC(=O)CCNS(=O)(=O)c2cccc3nonc23)c(OC)c1 -5.41%
CC(=O)N1CCCc2cc(S(=O)(=O)N3CCCC(C(=O)Nc4cccc(F)c4)C3)ccc21 (stereo not given) -43%
COc1ccc(N2CCN(C(=O)c3ccc(Nc4nc5ccccc5n5nnnc45)cc3)CC2)cc1 2.48%
NC(=NCc1ccccc1)NC(=O)c1nc(Cl)c(N)nc1N -15.6%
O=C(Nc1ncc(Cc2ccc(Cl)cc2)s1)c1ccc2c(c1)CC(c1ccccc1)OC2=O (stereo not given) -12.9%
Cc1cc(Nc2cccc(Cl)c2)nc2ccc(NC(=O)Cc3ccc(Cl)cc3)cc12 -36.9%
COc1cc(N2C(=O)CSC23C(=O)N(Cc2cccc(F)c2)c2ccccc23)cc(OC)c1OC (stereo not given) -9.19%
COc1ccc(NC(=O)c2sc3nc4c(cc3c2N)CCCCCC4)c(OC)c1 5.01% [at 11.5 µM, percent change from vehicle, -100% = no light]
CCN(CC)CCNC(=O)CN1C(=O)COc2ccc(S(=O)(=O)N3CCOCC3)cc21 -12%
CCOC(=O)Cn1c(=O)n(CC2CCCO2)c2nc(-c3ccc(OCC)cc3)nc(C(N)=O)c21 (stereo not given) -8.37%
CCOc1ccccc1NC(=O)Cn1c(=O)n(Cc2ccccc2)c(=O)c2c1c1cc(C)ccc1n2C -13.8%
COc1ccc(CCNC(=O)c2ccc3c(c2)CCN3S(=O)(=O)c2ccccc2)cc1OC -28.6%
COc1ccccc1Nc1c2c(nc3ccc(NC(=O)c4ccc(OC)c(OC)c4)cc13)CCCC2 -22.5%
Cc1ccc(-n2ncc(C(=O)NCc3ccccc3)c2C2CCN(C(=O)OC(C)(C)C)CC2)cc1 -30.2%
CCOC(=O)c1cc(-c2ccc(OC)c(S(=O)(=O)NC3CCCCC3)c2)on1 -5.72%
CCCCN(CC)CCCNC(=O)CN1C(=O)CSc2ccc(S(=O)(=O)N3CCOCC3)cc21 4.26%
COc1ccc(CCNC(=O)CN2C(=O)COc3ccc(C)cc32)cc1OC -20.3%
CCN(C(=O)Cn1nc(Cc2ccncc2)c2ccccc2c1=O)c1cccc(Cl)c1 -13%
c1ccc2sc(SSc3nc4ccccc4s3)nc2c1 5.83% [at 25.1 µM, percent change from vehicle, -100% = no light]
COc1ccccc1N(CC(=O)N1CCC(C)CC1)S(=O)(=O)c1ccc(C)cc1 -17.3%
COCCCNC(=O)c1c(-c2ccccc2)c(-c2ccccc2)nn(C)c1=O -14.3%
COc1cc(NC(=O)c2nn(C)c3c2CS(=O)(=O)c2ccccc2-3)cc(OC)c1 -7.95%
O=C(Nc1ccc2nc3n(c(=O)c2c1)CCCCC3)C(=O)Nc1ccccc1F 15.8%
CCc1ccc(Cn2c(CNS(=O)(=O)c3ccc([N+](=O)[O-])cc3)nc3cccnc32)cc1 -21.1%
Cc1cccc(Nc2nn3c(=O)c4cc5c(cc4nc3s2)OCO5)c1 24.4%
CCn1nc(C)c(CCN(C)C(=O)Nc2ccc(C)c(Cl)c2)c1C 1.02%
Cc1ccccc1Nc1c(-c2ccc(Br)cc2O)nc2sccn12 -32.3%
CCOc1ccc(NC(=O)Cn2cc(C(=O)c3ccc(OC)cc3)c(=O)c3cc4c(cc32)OCO4)cc1 -34.3%
COc1ccccc1N1CCN(C(c2ccc(Cl)cc2)c2nnc(-c3cccc(F)c3)o2)CC1 (stereo not given) -16.4%
N#Cc1c(O)c2c(-c3ccc(-c4ccccc4O)cc3)csc2[nH]c1=O 2.01%
O=C(Nc1ccc(Cl)c(-c2nc3ccccc3o2)c1)c1ccc(-c2cccc([N+](=O)[O-])c2)o1 -7.9%
CCCSc1oc(-c2ccco2)nc1S(=O)(=O)c1ccc(Cl)cc1 -11.7%
COc1ccccc1CNC(=O)c1cnc(N(C)C)nc1 -5.39%
COc1ccc(CC(=O)Nc2sc3c(c2C(=O)Nc2cccc(C)c2)CCCCC3)cc1 -33.8%
CCCCOC(=O)c1ccc(OC(=O)c2sc3ncn(Cc4ccccc4Cl)c(=O)c3c2C)cc1 -9.29%
Cc1ccc(Cl)cc1Nc1sc(C(=O)c2ccc(F)cc2)c(N)c1S(C)(=O)=O -33.8%
O=C(CSc1nc(=O)n(Cc2ccco2)c2c1CCC2)Nc1cccc(F)c1 -19.7%
CCOc1ccc(CNCCCSc2nnnn2C)cc1OC -10.8%
COc1cccc(CNC(=O)Cc2csc3nc(-c4ccccc4)cn23)c1 -8.46%
Cn1c(=O)c2nc3ccc(NC(=O)C(F)(F)F)cc3nc2n(C)c1=O 8.27%
Cc1ccc2c(c1)C(c1ccccc1)N(C(=O)c1ccc(S(=O)(=O)N3CCCC3)cc1)CC(=O)N2 (stereo not given) -8.14%
N=C(N)c1ccc(OCCCCCOc2ccc(C(=N)N)cc2)cc1
Cc1ccc(NC(=O)CN2C(=O)CSc3ccc(S(=O)(=O)N(C)C)cc32)c(C)c1 -5.44%
COc1ccc2sc(N(Cc3cccnc3)C(=O)C3COc4ccccc4O3)nc2c1 (stereo not given) 11%
O=S(=O)(c1ccccc1)c1nnn2c1nc(N1CCN(c3ccccc3)CC1)c1cc(Cl)ccc12 9.89%
NS(=O)(=O)OC[C@@H]1C[C@@H](n2ccc3c(N[C@H]4CCc5ccccc54)ncnc32)C[C@H]1O -31%
O=C(Cn1cc2c(n1)CCCC2)Nc1cc(C(F)(F)F)ccc1Cl -23.9%
CCCn1cc(S(=O)(=O)c2ccccc2)c(=O)c2cc(F)c(N3CCCCCC3)cc21 -30.9%
Cc1nc(SCc2ccccc2Cl)c(C#N)c(C)c1C -13.8%
Cc1cc(C)cc(NC(=O)c2sc3nc4n(c(=O)c3c2C)N=C(c2ccc(F)cc2)CS4)c1 -4.4%
COc1ccc(NC(=O)Cn2c(SCc3ccc(F)cc3)nc3cccnc32)c(OC)c1 3.32%
COc1cccc(N2CCN(C(=O)c3cc4c(=O)n(Cc5cccnc5)ccc4nc3C)CC2)c1 -2.23%
CCOc1ccc(C(=O)Nc2nc(-c3ccc(Br)cc3)ns2)cc1 -15.1%
COC(=O)c1ccccc1NC(=O)CCC(=O)N1CC(C)Sc2ccccc21 (stereo not given) -7.07%
COC(=O)C(NC(=O)CCc1c(C)nc2cc(-c3cccc(F)c3)nn2c1C)C(C)C (stereo not given) -65.7%
Cc1ccc2c(=O)cc(C(=O)Nc3ccc(S(=O)(=O)N4CCCCC4)cc3)oc2c1 -2.9%
CCC(Cc1ccccc1)NC(=O)CCS(=O)(=O)c1cc2c(cc1Cl)NC(=O)CO2 (stereo not given) -14.2%
COc1ccc(NC(=O)C2CCCN(c3cnccn3)C2)c(OC)c1 (stereo not given) 8.16%
CCOc1ccc(CNC(=O)Nc2ccc3c(c2)N(C)C(=O)c2ccccc2S3)cc1 -48.8%
Cc1ccc(NC(=O)CSc2cn(CC(=O)N3CCOCC3)c3ccccc23)cc1Cl -5.14%
CCOc1ccc2c(c1)c(=O)c(C(=O)c1ccc3c(c1)OCO3)cn2Cc1cccc(F)c1 -23.4%
COc1ccc(-n2ccnc(NCc3cccs3)c2=O)cc1 -3.1%
CCOc1ccc(-n2c(C)nc3cc(C(=O)NCc4ccc(C)cc4)ccc32)cc1 -19.8%
COC(=O)Nc1nc2ccc(C(=O)c3ccccc3)cc2[nH]1
COc1ccc(-c2ccc(-c3noc(-c4cc(OC)cc(OC)c4)n3)c(OC)n2)cc1 -0.866%
CCn1c(=O)cc(SCC(=O)Nc2cc(Cl)ccc2OC)c2ccccc21 -17.2%
CCOc1ccc(-c2nnc(SCC(=O)Oc3ccccc3)o2)cc1 -89.5%
Cc1ccc(C(=O)Nc2nnc(S(=O)(=O)N(C)Cc3ccc(F)cc3)s2)cc1 -0.753%
CC1CCCN(c2nc(-c3ccccc3O)nc3ccccc23)C1 (stereo not given) -10.8%
O=c1c2c3c(sc2nnn1Cc1ccc(F)cc1)CCCC3 0%
CCc1cccc(NC(=O)CSc2n[nH]c(-c3ccccc3Cl)n2)c1 -28.5%
O=C(Nc1ccc2nc(SCCOc3ccccc3Cl)sc2c1)c1ccco1 -24%
Cc1nnc(N2CCN(c3cccc(Cl)c3)CC2)c2c1nnn2Cc1ccc(F)cc1 5.71%
COc1cccc(-c2nn(C)c3sc(C(=O)NCCc4cccc(C)c4)cc23)c1 -28.1%
CCOC(=O)C1CCCN(C(=O)Cn2ncc3c(C)n(Cc4ccc(F)cc4)c(C)c3c2=O)C1 (stereo not given) -39.9%
CCOc1ccc(OCC)c(NC(=O)c2cnn(-c3ccc(F)cc3)c2C2CCN(C(=O)OC(C)(C)C)CC2)c1 -3.36%
Cn1c(NCCN(CCO)CCCc2ccc([N+](=O)[O-])cc2)cc(=O)n(C)c1=O -6%
CCCNC(=O)Cn1ncc2c3ccccc3n(CCC)c2c1=O -15.7%
Cc1ccc(C)c(CN2C(=O)c3ccccc3S(=O)(=O)c3ccc(C(=O)N4CCCCCC4)cc32)c1 -36.9%
c1ccc2c(Cc3c[nH]c4ccccc34)c[nH]c2c1 -24.5%
O=C(NCC(c1ccco1)S(=O)(=O)c1cccs1)c1ccc(F)cc1 (stereo not given) 17.3%
CC(=O)Nc1ccc(C2Sc3ccccc3NC3=C2C(=O)c2ccccc23)cc1 (stereo not given) 29%
CCOC(=O)c1ccc2oc(=O)n(Cc3ccccc3)c2c1 -8.74%
Cc1oc2ncn(CC(C)C)c(=O)c2c1C(=O)NCCCN1CCCCC1 -7.94%
COc1cccc(NC(=O)CSc2ncc(S(=O)(=O)c3ccc(C)c(C)c3)c(=O)[nH]2)c1 -3.98%
O=C(COc1ccc(F)cc1)Nc1ccc2nc(SCC(=O)N3CCc4ccccc43)sc2c1 -11.7%
COc1ccccc1CNC(=O)c1ccc(N2CCCC2)c(NC(=O)NCCC(C)C)c1 -3.07%
Cc1cc(C)c(NC(=O)c2cc3sc(Cl)cc3n2C)c(C)c1 11.9%
CC(=O)c1ccc(N2CCN(S(=O)(=O)c3ccc(-c4cc(C(F)(F)F)on4)s3)CC2)cc1 -18.1%
Cc1ccccc1OCC(=O)OCc1cc(=O)n2nc(C3CCCCC3)sc2n1 4.89%
CCc1c(-c2ccccc2)nc2ccccc2c1C(=O)NCCc1ccccc1 -6.61%
Cc1csc2nc(COc3ccccc3NC(=O)c3ccco3)cc(=O)n12 0.904%
CSc1cccc(NC(=O)Cn2c3ncccc3c(=O)n2-c2ccc(C)cc2)c1 -5.03%
CC(=O)N1CCc2c(sc3c2c(=O)n(-c2ccccc2)c(=O)n3CC(=O)Nc2ccccc2C)C1 -16.3%
COc1ccc(NC(=O)c2oc3ccccc3c2NC(=O)c2cc3ccccc3o2)cc1 8.96%
